The values that follow come from PubChem BioAssay AID2528 (National Center for Advancing Translational Sciences (NCATS), 2010).

Where “and” joins values, the source holds several entries; their conditions need not be identical. Equal entries are not always repeated. About 700 (0.2%) of roughly 350,000 compounds were called active. The call rests on the fitted dose curve; in most records, active means well fitted inhibition curve with a large enough effect; inconclusive means small, poorly fitted or top-dose-only effect; inactive means flat fitted curve, though single readings scatter. The entries are a selection whose mix differs from that of the whole data set. Where a structure was tested more than once in an assay, its records may differ in their call.
Potency means the concentration at half of the fitted maximal effect.

The test has as its target RecQ-like DNA helicase BLM (Homo sapiens) (UniProt P54132). Kind of test: qHTS Assay for Inhibitors of Bloom's syndrome helicase (BLM). Further: nearly all actives have a fitted effect of over 35% in size.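 On activity change, negative = inhibition: plate controls were vehicle for no effect and no enzyme for full effect.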 The note with it: recombinant BLM DNA unwinding, fluorescence dequenching; series mostly up to 56.1 µM; activity change, negative = inhibition: at the top concentration.
Chain of UniProt P54132 (P54132 whole entry, looked up): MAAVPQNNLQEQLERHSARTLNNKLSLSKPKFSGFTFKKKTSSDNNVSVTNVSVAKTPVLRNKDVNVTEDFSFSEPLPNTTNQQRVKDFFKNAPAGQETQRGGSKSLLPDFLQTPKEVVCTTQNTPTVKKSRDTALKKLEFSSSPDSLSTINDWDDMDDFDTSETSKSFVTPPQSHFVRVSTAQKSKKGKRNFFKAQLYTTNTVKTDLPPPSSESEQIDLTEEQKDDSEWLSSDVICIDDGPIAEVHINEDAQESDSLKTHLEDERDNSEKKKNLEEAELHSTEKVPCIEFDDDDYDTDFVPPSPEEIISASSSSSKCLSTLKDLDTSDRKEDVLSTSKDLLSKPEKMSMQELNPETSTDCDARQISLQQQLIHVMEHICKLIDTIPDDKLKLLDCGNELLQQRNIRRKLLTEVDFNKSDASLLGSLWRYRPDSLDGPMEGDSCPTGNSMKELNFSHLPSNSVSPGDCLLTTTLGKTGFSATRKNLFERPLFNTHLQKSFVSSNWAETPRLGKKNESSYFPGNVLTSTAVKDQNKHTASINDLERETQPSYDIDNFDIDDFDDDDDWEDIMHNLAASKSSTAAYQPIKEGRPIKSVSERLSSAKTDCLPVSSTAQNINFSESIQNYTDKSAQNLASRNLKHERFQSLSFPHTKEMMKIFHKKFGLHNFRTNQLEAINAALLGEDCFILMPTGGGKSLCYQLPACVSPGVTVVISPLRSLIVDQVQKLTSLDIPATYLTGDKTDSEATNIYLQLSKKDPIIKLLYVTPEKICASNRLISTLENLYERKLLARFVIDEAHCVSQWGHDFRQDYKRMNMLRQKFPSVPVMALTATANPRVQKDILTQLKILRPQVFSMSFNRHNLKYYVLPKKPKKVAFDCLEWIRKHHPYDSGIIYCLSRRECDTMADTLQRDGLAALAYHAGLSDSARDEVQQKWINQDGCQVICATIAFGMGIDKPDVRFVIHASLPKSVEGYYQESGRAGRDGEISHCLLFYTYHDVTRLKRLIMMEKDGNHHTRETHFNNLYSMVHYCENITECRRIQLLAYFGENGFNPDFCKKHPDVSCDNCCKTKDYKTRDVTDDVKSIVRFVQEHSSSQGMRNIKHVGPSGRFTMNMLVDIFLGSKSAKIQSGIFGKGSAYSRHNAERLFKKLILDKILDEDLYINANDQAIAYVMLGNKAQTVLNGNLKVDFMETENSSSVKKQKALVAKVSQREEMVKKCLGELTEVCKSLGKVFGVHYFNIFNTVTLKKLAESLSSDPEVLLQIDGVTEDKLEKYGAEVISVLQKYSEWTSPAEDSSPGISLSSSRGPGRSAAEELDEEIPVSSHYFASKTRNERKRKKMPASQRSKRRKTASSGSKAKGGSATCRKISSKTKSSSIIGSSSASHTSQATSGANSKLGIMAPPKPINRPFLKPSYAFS
Turning to `Cc1ccccc1N1C(=O)/C(=C/c2ccco2)C(=O)NC1=S`, the Potency was active: 0.891 µM.
Regarding `O=C1NCN(c2ccccc2)C12CCN(C[C@H]1COc3ccccc3O1)CC2`, the “activity change, negative = inhibition” value is inactive: -4.03%.
In the case of `C=CCN1CC[C@@]2(C)c3cc(O)ccc3CC1[C@@H]2C`, the “activity change, negative = inhibition” value is inactive: 5.39%.
For `CCCC[N+]1(C)C2CC(OC(=O)C(CO)c3ccccc3)CC1C1OC12` (stereo not drawn), the Potency result was “inactive”.
On to `Oc1ccc(Cl)cc1Cc1cc(Cl)ccc1O`, for which the Potency result is “inactive”.
Turning to `C/C(O)=C(\C#N)C(=O)Nc1cc(Br)ccc1Br`, the “activity change, negative = inhibition” value was inactive: -6.81%.
Regarding `C[C@H]1COC2=C1C(=O)C(=O)c1c2ccc2c1CCCC2(C)C`, the Potency result is “inactive”.
As for `O=c1cc(-c2ccc(O)c(O)c2)oc2cc(O)cc(O)c12`, the Potency result is “inactive and active: 35.5 µM”.
As to `COc1ccc(OC)c(C(O)C(C)N)c1` (stereo not drawn), the Potency result was “inactive”.
Same read-out and setting: the result for `O=C(OCC1O[C@@H](OC(=O)c2cc(O)c(O)c(O)c2)[C@@H](OC(=O)c2cc(O)c(O)c(O)c2)[C@@H](OC(=O)c2cc(O)c(O)c(O)c2)[C@@H]1OC(=O)c1cc(O)c(O)c(O)c1)c1cc(O)c(O)c(O)c1` (stereo partly drawn) reads active: 0.501 µM.
As for `N#CC(C#N)=NNc1ccc(OC(F)(F)F)cc1`, the “activity change, negative = inhibition” value is inactive: -20.2%.
For `CN1CCN(C2=Nc3cc(Cl)ccc3Nc3ccccc32)CC1`, the Potency entry was “inactive”.
Regarding `CC[C@@H]1CN2CCc3cc(OC)c(OC)cc3[C@H]2C[C@@H]1C[C@H]1NCCc2cc(OC)c(OC)cc21`, the “activity change, negative = inhibition” value was inactive: 1.72% [at 21.4 µM].
Same read-out and setting: the same measure for `CN1CC(CNC(=O)OCc2ccccc2)CC2c3cccc4c3c(cn4C)CC21` (stereo not drawn): inactive: -0.885%; for `Cc1c(C(=O)c2cccc3ccccc23)c2cccc3c2n1[C@@H](CN1CCOCC1)CO3`: inactive: -11.1%.
On to `CC(=O)O[C@H]1C(=O)[C@@]2(C)C([C@H](OC(=O)c3ccccc3)[C@]3(O)C[C@H](OC(=O)[C@H](O)[C@@H](NC(=O)c4ccccc4)c4ccccc4)C(C)=C1C3(C)C)[C@]1(OC(C)=O)CO[C@@H]1C[C@@H]2OC(=O)[C@H](C)NC(=O)c1ccc(-c2c3ccc(=O)cc-3oc3cc(O)ccc23)c(C(=O)O)c1` (stereo partly drawn), for which the Potency was active: 3.16 µM.
As to `N[C@@H](CCCP(=O)(O)O)C(=O)O`, the “activity change, negative = inhibition” value was inactive: -4.34%.
`CNc1ccc2oc(C[C@H]3O[C@@]4(CC[C@H]3C)O[C@H]([C@H](C)C(=O)c3ccc[nH]3)[C@H](C)C[C@H]4C)nc2c1C(=O)O`: the “activity change, negative = inhibition” value was inactive: -27.5%.
Turning to `COc1ccc2c(c[n+](C)c3c4cc5c(cc4ccc23)OCO5)c1OC`, the Potency entry was “inactive”.
As for `O=C(Nc1ccc(Oc2ccc(Cl)cc2)c(Cl)c1)c1cc(I)cc(I)c1O`, the “activity change, negative = inhibition” value is inactive: -29%.
On to `NC(N)=NOCCC(N)C(=O)O` (stereo not drawn), for which the “activity change, negative = inhibition” value is inactive: 5.64%.
The same measure, in the same setting: the same measure for `CN1CCC[C@@H]1c1cccnc1`: inactive: -11.2%.
Regarding `C[C@]12CC[C@@H]3c4ccc(OC(=O)N(CCCl)CCCl)cc4CC[C@H]3[C@@H]1CC[C@@H]2O`, the Potency is active: 14.1 µM.
For `COc1ccc2c3c([nH]c2c1)C(C)=NCC3`, the Potency entry was “inactive”.
For `CCCN1CCC[C@@H]2Cc3[nH]ncc3C[C@H]21`, the Potency entry is “inactive”.
On to `C[C@@H](N)Cc1cnc[nH]1`, for which the “activity change, negative = inhibition” value is inactive: -2.39%.
In the case of `O=C1NC(=S)N(c2ccccc2)C(=O)/C1=C/c1ccco1`, the Potency is active: 22.4 µM.
Regarding `CCCN1CCO[C@@H]2c3cc(O)ccc3OC[C@@H]21`, the “activity change, negative = inhibition” value is inactive: 6.68%.
Take `CCC1CN2CCc3cc(OC)c(OC)cc3C2CC1CC1NCCc2cc(OC)c(OC)cc21` (stereo not drawn): the “activity change, negative = inhibition” value was inactive: -4.37%.
Still for that read-out and setting: the same measure for `CC[C@@H](CO)NC(=O)[C@H]1C=C2c3cccc4c3c(cn4C)C[C@H]2N(C)C1`: inactive: -2.69%.
The same measure, in the same setting: the same measure for `C[N+]1(C)CCN(c2ccccc2)CC1`: inactive: -5.56%.
Turning to `NCCc1ccc(O)cc1`, the Potency entry was “inactive”.
For `NC[C@@H](CC(=O)O)c1ccc(Cl)cc1`, the Potency entry was “inactive”.
For the molecule `C=C(C)[C@H]1Cc2c(ccc3c2O[C@@H]2COc4cc(OC)c(OC)cc4[C@@H]2C3=O)O1`, the Potency entry was “inactive”.
Still for that read-out and setting: the result for `COC(=O)C1=CCCN(C)C1` reads “inactive”.
As to `CC(C)[C@@]1(NC(=O)[C@H]2CC3c4cccc5[nH]cc(c45)C[C@H]3N(C)C2)O[C@@]2(O)C3CCCN3C(=O)[C@@H](Cc3ccccc3)N2C1=O` (stereo partly drawn), the “activity change, negative = inhibition” value is inactive: -4.04%.
Take `Fc1ccc(C(OCCN2CCN(CCCc3ccccc3)CC2)c2ccc(F)cc2)cc1`: the Potency result was “inactive”.
On the same count and under the same terms, the result for `COC(=O)[C@@H](N)CCCN=C(N)N[N+](=O)[O-]` reads “inactive”.
Take `CC(C)C[C@H]1C(=O)N2CCCC2[C@]2(O)O[C@](NC(=O)[C@@H]3C=C4c5cccc6[nH]c(Br)c(c56)C[C@H]4N(C)C3)(C(C)C)C(=O)N12` (stereo partly drawn): the “activity change, negative = inhibition” value is inactive: -8.88%.
Take `C=C(C)C1CNC(C(=O)O)C1CC(=O)O` (stereo not drawn): the “activity change, negative = inhibition” value was inactive: 2.71%.
The same measure, in the same setting: the same measure for `CNCCc1c[nH]c2ccc(O)cc12`: inactive: 0.493%.
As to `CCN1/C(=C\C=C\C2=[N+](CC)c3ccccc3C2(C)C)C(C)(C)c2ccccc21`, the Potency is active: 7.94 µM.
Consider `COc1ccc(Cc2nccc3cc(OC)c(OC)cc23)cc1OC`, for which the Potency result was “inactive”.
As to `CC(C)(O)[C@@H]1[C@H]2OC(=O)[C@@H]1[C@]1(O)C[C@H]3O[C@]34C(=O)O[C@H]2[C@@]14C` (tested in a mixture with another compound), the “activity change, negative = inhibition” value is inactive: 3.4%.
As for `O=C1NC(=S)NC(=O)C1=Cc1ccc2c(c1)CCN2CCCCl`, the Potency is active: 15.8 µM.
For `CN1CCCC1c1cccnc1` (stereo not drawn), the “activity change, negative = inhibition” value is inactive: 5.39%.
In the case of `COc1ccc2c(c1OC)C(=O)O[C@@H]2C1c2cc3c(cc2CCN1C)OCO3` (stereo partly drawn), the “activity change, negative = inhibition” value was inactive: -1.26%.
For the molecule `O[C@@H]1CCCC[C@H]1N1CCC(c2ccccc2)CC1`, the Potency entry was “inactive”.
